Measured values published in PubChem BioAssay AID1347073 (National Center for Advancing Translational Sciences (NCATS), 2019).
The whole screen tested about 45,000 compounds, of which about 200 (0.44%) were called active. Roughly 7% stayed inconclusive and do not appear here. Calls follow the shape of the dose curve; as a rule, active = well fitted activation curve with a large enough effect; inconclusive = small, poorly fitted or top-dose-only effect; inactive = no such curve, though single readings can be large or run the other way. The list shows a part of the results.

Experiment: qHTS of TDP-43 Inhibitors: NCGC Sytravon Library Screen; also: 0% is about no effect; nearly all actives have a fitted effect of over 55% in size
Conditions: yeast TDP-43 toxicity rescue, BacTiter-Glo growth, 24 h; series mostly up to 46.1 µM; growth rescue (activation): at the top concentration
Outline: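 TDP-43-expressing yeast, pregrown in raffinose, seeded at OD600 0.02 in galactose medium with compound for 24 hr at 30 deg C. Growth read by BacTiter-Glo luminescence, so rescue of toxicity appears as activation.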

SMILES	growth rescue (activation)
CCOC(=O)c1c(C)n(-c2ccc(OC)cc2)c2ccc(OC(=O)COc3ccccc3)cc12	inactive: 4.04%
Fc1ccc(-c2csc(NC3=NCCC3)n2)cc1	inactive: 6.47%
COC(=O)COc1ccc2c(=O)c(Oc3ccccc3Br)coc2c1	inactive: -12%
CC(C)(Cc1ccc(O)cc1)NC(=O)CC(=O)N/N=C/c1ccc([N+](=O)[O-])cc1	inactive: 5.49%
CC1CN(C(=O)COC(=O)c2ccc(Cl)c(N)c2)CC(C)O1 (stereo not drawn)	inactive: 9.87%
CC1(C(=O)NS(=O)(=O)c2cccc(F)c2)CCN1C(=O)C1(c2ccc(Cl)cc2)CCC1 (stereo not drawn)	inactive: 27.9%
Cc1noc(C)c1-c1ccc(C(=O)NC2CCCCC2)c2occc12	inactive: 7.35%
O=C(CN(C(=O)CCC(=O)Nc1ccccn1)C1CCCC1)NCc1ccc(F)cc1	inactive: 2.01%
COc1cccc(OCc2cc(C(=O)NCCc3cccc(C)n3)no2)c1	inactive: 11.8%
Cc1ncc([N+](=O)[O-])n1S(=O)(=O)c1ccc2c(c1)OCCO2	inactive: -17.3%
Cc1nnsc1C(=O)NC1CCCc2c1cnn2-c1cc(F)cc(F)c1 (stereo not drawn)	inactive: 23.5%
c1ccc(COc2cccc(-c3cc4nc(NCCOc5ccccc5)ccn4n3)c2)cc1	inactive: 13.4%
COc1cccc(OCCNC(=O)c2cc(OC)c(OC)c(OC)c2)c1	inactive: -7.18%
COc1ccc(CNC(=O)CN(C)S(=O)(=O)c2ccc3nc(C)sc3c2)cc1	inactive: 1.8%
COc1cc(NC(=O)CSc2nc3ncnc(N)c3[nH]2)c(C(=O)O)cc1OC	inactive: 10.5%
CC(Oc1ccc2oc3ccccc3c2c1)C(=O)NC12CC3CC(CC(C3)C1)C2 (stereo not drawn)	inactive: -11.3%
Cc1ccc2c(c1)C1C[N+](C)(CC(=O)Nc3ccccc3Cl)CCC1N2C(=O)c1ccccc1Cl (stereo not drawn)	inactive: 22.3%
NC(=S)N/N=C/c1ccc(-n2nncc2-c2ccc(Cl)cc2)cc1	inactive: -26.1%
Cc1sc(NC(=O)/C=C/C(=O)O)c(C(N)=O)c1-c1ccc(C(C)(C)C)cc1	inactive: 32.8%
COc1ccc(OCC(=O)N/N=C/c2ccc(N(C)C)cc2)cc1	inactive: 4.35%
COc1cc(/C=C/C(=O)OCC(=O)NC(C)c2ccccc2)cc(OC)c1OC (stereo not drawn)	inactive: 7.19%
O=C(COC(=O)CC1CCCC1)Nc1ccc(Br)cc1F	inactive: -24.7%
Cc1cccc(NC(=O)COC(=O)c2ccc3nc(C)c(C)nc3c2)c1	inactive: 18.1%
CCN1CCN(C(=O)C(C)Sc2nc3nc(C)cc(C)n3n2)CC1 (stereo not drawn)	inactive: -5.83%
O=C(NCCCN1CCOCC1)c1cn(-c2ccccc2)nc1-c1ccc(F)cc1	inactive: 14.1%
O=C(c1ccccc1)n1nnc2ccccc21	inactive: 28.7%
O=C(NCC1CCCO1)c1ccccc1NS(=O)(=O)c1cccs1 (stereo not drawn)	inactive: -2.92%
COc1ccc(S(=O)(=O)Nc2cc(C(=O)NCCCN3CCOCC3)ccc2N2CCOCC2)cc1	inactive: -6.92%
